Test results published in publication PMC3627919.
No constants are given. Whether binding was seen depends on the method and setting. In cells and extracts the contact can be indirect. Some results given as binding are weak or reduced against the parent protein; the word gives no strength.

Protein sequences, listed by entry. Tags and fused reporters are not part of them. Lines headed by an entry give the natural chain unless they say otherwise; changes in a name come on top. Residues count along the entry.
UniProt P42768, residues 220-288: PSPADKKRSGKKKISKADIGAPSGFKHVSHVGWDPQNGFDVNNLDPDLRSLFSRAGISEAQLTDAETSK
UniProt P60953: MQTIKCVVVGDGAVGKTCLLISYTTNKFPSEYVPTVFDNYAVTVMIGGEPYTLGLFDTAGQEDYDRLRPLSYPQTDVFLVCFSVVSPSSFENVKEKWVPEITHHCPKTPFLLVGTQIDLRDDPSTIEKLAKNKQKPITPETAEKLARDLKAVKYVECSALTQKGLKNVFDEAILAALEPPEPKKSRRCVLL

Legend:
Nfluc416-WASP (human) [1] = molecular target: Nfluc416-WASP (human) (UniProt P42768); experiment: split reporter; bimolecular luminescence complementation (split firefly luciferase) in living HEK 293 cells, 24 h after transient cotransfection of the pair (50 ng/well) with pRL-tk; D-luciferin 150 ug/ml; IVIS CCD camera; ratio FL at 600 nm to RL at 500 nm; wild-type pairs also with co-expressed GEF or GAP catalytic domains
Nfluc416-WASP (human) [2] = molecular target: Nfluc416-WASP (human) (UniProt P42768); experiment: split reporter; bimolecular luminescence complementation in living NIH 3T3 cells, serum-starved 6 h, then stimulated with insulin (Rac1), lysophosphatidic acid (RhoA) or bradykinin (CDC42); sequence images for 30 min, or 3 min after different concentrations
[3] = molecular target: c-myc-tagged Nfluc416-WASP (human) (UniProt P42768); experiment: co-IP; lysate of transfected HEK 293 cells (20 mM Tris pH 7.5, 150 mM NaCl, 1% Triton X-100); precipitated with mouse anti-myc antibody and protein G magnetic beads; Nfluc-effectors detected with anti-myc, Cfluc-Rho GTPases with anti-luciferase polyclonal antibody

| Substance | binding (Nfluc416-WASP (human) [1]) | binding (Nfluc416-WASP (human) [2]) | binding [3] |
| --- | --- | --- | --- |
| Cfluc398-CDC42(F37A) (from UniProt P60953 1-191) | no binding |  |  |
| Cfluc398-CDC42(T17N) (from UniProt P60953 1-191) | binds weakly |  |  |
| HA-tagged Cfluc398-CDC42(G12V) (from UniProt P60953 1-191) |  |  | binds |

Further lines, results first:

| binding (Nfluc416-WASP (human) [1]) | binding (Nfluc416-WASP (human) [2]) | binding [3] | Substance |
| --- | --- | --- | --- |
| binds | binds |  | Cfluc398-CDC42(WT) (from UniProt P60953 1-191) |
|  |  | binds | HA-tagged Cfluc398-CDC42(WT) (from UniProt P60953 1-191) |
